# Measurements: a collection of fitness landscapes (doi:10.1126/science.1257360)
# The other results are listed elsewhere or left out.
# B1: PhoQ; a variant is named by its letters at X, in order, P23837 (parent)
# chain: MKKLLRLFFPLSLRVRFLLATAAVVLVLSLAYGMVALIGYSVSFDKTTFRLLRGESNLFYTLAKWENNKLHVELPENIDKQSPTMTLIYDENGQLLWAQRDVPWLMKMIQPDWLKSNGFHEIEADVNDTSLLLSGDHSIQQQLQEVREDDDDAEMTHSVAVNVYPATSRMPKLTIVVVDTIPVELKSSYMVWSWFIYVLSANLLLVIPLLWVAAWWSLRPIEALAKEVRELEEHNRELLNPATTRELTSLVRNLNRLLKSERERYDKYRTTLTDLTHSLKTPLXXLQXXLRSLRSEKMSVSDAEPVMLEQISRISQQIGYYLHRASMRGGTLLSRELHPVAPLLDNLTSALNKVYQRKGVNISLDISPEISFVGEQNDFVEVMGNVLDNACKYCLEFVEISARQTDEHLYIVVEDDGPGIPLSKREVIFDRGQRVDTLRPGQGVGLAVAREITEQYEGKIVAGESMLGGARMEVIFGRQHSAPKDE
# Variants of: B1
# Assay: enrichment ratio after two sorts for PhoP signalling (ratio (wild type AVST 3.29)); higher = more functional
# Conditions: with PhoP (E. coli)
row,Variant,enrichment ratio
1,ALQH,≤ 0.25
2,TINM,15.1
3,FGST,≤ 0.25
4,IQKN,≤ 0.25
5,HGWF,≤ 0.25
6,ALRF,≤ 0.25
7,TRRN,≤ 0.25
8,TIDQ,≤ 0.25
9,AEPC,≤ 0.25
10,TMNQ,4.45
11,WDFE,≤ 0.25
12,NPQP,≤ 0.25
13,KPYY,≤ 0.25
14,EEQV,≤ 0.25
15,PVLG,≤ 0.25
16,GEKS,≤ 0.25
17,RIGL,≤ 0.25
18,GLVS,≤ 0.25
19,GVCA,≤ 0.25
20,QNNS,≤ 0.25
21,KFMM,≤ 0.25
22,ISQL,≤ 0.25
23,YPAH,≤ 0.25
24,PVLK,≤ 0.25

row,Variant,enrichment ratio
1,CTTL,≤ 0.25
2,SRIR,≤ 0.25
3,HEIL,≤ 0.25
4,ATDM,≤ 0.25
5,HLPP,≤ 0.25
6,PDCM,≤ 0.25
7,MSLD,≤ 0.25
8,RCPI,≤ 0.25
9,HANR,≤ 0.25
10,WVVL,≤ 0.25
11,VYQI,≤ 0.25
12,SIGE,16.9
13,KQND,≤ 0.25
14,FYYK,≤ 0.25
15,YICT,≤ 0.25
16,GPLR,≤ 0.25
17,PAFT,≤ 0.25
18,YFNE,≤ 0.25
19,SNSH,9.5
20,WRIM,≤ 0.25
21,KKVI,≤ 0.25
22,AKQT,≤ 0.25
23,SYAH,≤ 0.25
24,FCQW,≤ 0.25

row,Variant,enrichment ratio
1,YASD,≤ 0.25
2,GYHG,≤ 0.25
3,GPCE,≤ 0.25
4,HTNS,≤ 0.25
5,VPYP,≤ 0.25
6,ICKP,≤ 0.25
7,ADHW,≤ 0.25
8,GHQF,≤ 0.25
9,DLDG,≤ 0.25
10,MIFD,≤ 0.25
11,DWND,≤ 0.25
12,VNAD,≤ 0.25
13,YHTE,≤ 0.25
14,MGDW,≤ 0.25
15,RDWL,≤ 0.25
16,KHAD,≤ 0.25
17,LTVD,≤ 0.25
18,WPCV,≤ 0.25
19,ILAH,≤ 0.25
20,HVSC,≤ 0.25
21,NSRP,≤ 0.25
22,RNDW,≤ 0.25
23,ARHN,≤ 0.25
24,DVWS,≤ 0.25

row,Variant,enrichment ratio
1,HMKQ,≤ 0.25
2,GVQR,≤ 0.25
3,HESH,≤ 0.25
4,SKAM,28
5,PHSE,≤ 0.25
6,LYIP,≤ 0.25
7,NNFP,≤ 0.25
8,FGIV,2.4
9,WVHN,≤ 0.25
10,GKEC,≤ 0.25
11,FSPK,≤ 0.25
12,LKPN,≤ 0.25
13,EKHK,≤ 0.25
14,TQVE,3.84
15,GNAM,35.8
16,YDQQ,≤ 0.25
17,GCYS,≤ 0.25
18,NPQF,≤ 0.25
19,RSKA,≤ 0.25
20,TRCV,5.74
21,TRQI,≤ 0.25
22,EAIF,≤ 0.25
23,HSMM,3.98
24,DYPI,≤ 0.25

row,Variant,enrichment ratio
1,KDPM,≤ 0.25
2,KARW,≤ 0.25
3,LPCA,≤ 0.25
4,VGST,≤ 0.25
5,EFDN,≤ 0.25
6,AIGD,≤ 0.25
7,DQDV,≤ 0.25
8,ATVN,19.4
9,AHYP,≤ 0.25
10,SHPI,≤ 0.25
11,ASLE,5.81
12,SMYM,2.21
13,LQPL,≤ 0.25
14,CTLL,0.613
15,TDLS,18
16,SSFM,5.86
17,EEPP,≤ 0.25
18,EAYK,≤ 0.25
19,LGGQ,≤ 0.25
20,MKQA,≤ 0.25
21,MYMW,≤ 0.25
22,GYGV,≤ 0.25
23,PENN,≤ 0.25
24,LSST,≤ 0.25

row,Variant,enrichment ratio
1,HVLK,≤ 0.25
2,SPHY,≤ 0.25
3,HPKI,≤ 0.25
4,EYGV,≤ 0.25
5,RCIF,≤ 0.25
6,VWVF,≤ 0.25
7,AYMG,≤ 0.25
8,FAWC,≤ 0.25
9,VWID,≤ 0.25
10,THCY,1.87
11,LMRQ,≤ 0.25
12,SWWD,≤ 0.25
13,RTCY,≤ 0.25
14,KDQF,≤ 0.25
15,RFWI,≤ 0.25
16,WRMN,≤ 0.25
17,LAWD,≤ 0.25
18,WYRL,≤ 0.25
19,AIYR,≤ 0.25
20,IQPC,≤ 0.25
21,SWSQ,≤ 0.25
22,PMFT,≤ 0.25
23,WNKD,≤ 0.25
24,WYTW,≤ 0.25

row,Variant,enrichment ratio
1,LHGL,≤ 0.25
2,PLKW,≤ 0.25
3,MPKF,≤ 0.25
4,KEAM,≤ 0.25
5,KAAP,≤ 0.25
6,YDGD,≤ 0.25
7,NWLK,≤ 0.25
8,DLHN,≤ 0.25
9,VWDI,≤ 0.25
10,AHPD,≤ 0.25
11,YRTI,≤ 0.25
12,HFFM,≤ 0.25
13,MYPL,≤ 0.25
14,ISYS,≤ 0.25
15,WRIA,≤ 0.25
16,EITT,≤ 0.25
17,IERL,≤ 0.25
18,KIFM,≤ 0.25
19,EVLM,≤ 0.25
20,EQVY,≤ 0.25
21,FEKW,≤ 0.25
22,IWQF,≤ 0.25
23,TTSS,15.9
24,NFPN,≤ 0.25

row,Variant,enrichment ratio
1,KDGS,≤ 0.25
2,KRRP,≤ 0.25
3,TMPL,≤ 0.25
4,ISDR,≤ 0.25
5,DVSL,≤ 0.25
6,AYST,≤ 0.25
7,RISD,≤ 0.25
8,ISVR,≤ 0.25
9,EQFP,≤ 0.25
10,EMNM,≤ 0.25
11,IMVF,≤ 0.25
12,TGIE,≤ 0.25
13,IPQA,≤ 0.25
14,HGLA,≤ 0.25
15,DPIK,≤ 0.25
16,TRFF,≤ 0.25
17,FKGW,≤ 0.25
18,YVWD,≤ 0.25
19,FFIH,≤ 0.25
20,YDVD,≤ 0.25
21,AHMQ,≤ 0.25
22,RPCT,≤ 0.25
23,RWNY,≤ 0.25
24,ITAA,≤ 0.25

row,Variant,enrichment ratio
1,FVFW,≤ 0.25
2,DANS,≤ 0.25
3,IRDT,≤ 0.25
4,HDDS,≤ 0.25
5,FALY,1.35
6,TRDL,≤ 0.25
7,DNGE,≤ 0.25
8,NQAM,≤ 0.25
9,HVRR,≤ 0.25
10,ELKA,≤ 0.25
11,GMCV,2.92
12,YQAR,≤ 0.25
13,IETH,≤ 0.25
14,GHDA,≤ 0.25
15,ALKR,≤ 0.25
16,QNHR,≤ 0.25
17,QDFC,≤ 0.25
18,VMRV,≤ 0.25
19,WTKV,≤ 0.25
20,SRPF,≤ 0.25
21,YWQD,≤ 0.25
22,GHNI,≤ 0.25
23,QSNM,13.1
24,KINY,≤ 0.25

row,Variant,enrichment ratio
1,NYFA,≤ 0.25
2,INMS,≤ 0.25
3,VNAQ,≤ 0.25
4,NYGP,≤ 0.25
5,TMEF,≤ 0.25
6,GALE,≤ 0.25
7,RESP,≤ 0.25
8,SWSL,≤ 0.25
9,EPAR,≤ 0.25
10,WMHS,≤ 0.25
11,DNAV,≤ 0.25
12,LCWL,≤ 0.25
13,PCLY,≤ 0.25
14,VWWI,≤ 0.25
15,YCTC,≤ 0.25
16,NKNW,≤ 0.25
17,HLYY,≤ 0.25
18,RTLH,≤ 0.25
19,RCMW,≤ 0.25
20,NSMT,≤ 0.25
21,IKTA,≤ 0.25
22,KNNM,5.03
23,SDVQ,≤ 0.25
24,GGLC,4.03

row,Variant,enrichment ratio
1,HIAP,≤ 0.25
2,VGWN,≤ 0.25
3,LCMV,≤ 0.25
4,LLGQ,≤ 0.25
5,VQRF,≤ 0.25
6,ECPM,≤ 0.25
7,QEPA,≤ 0.25
8,WCWQ,≤ 0.25
9,AKPA,≤ 0.25
10,TNAA,13.7
11,PNSD,≤ 0.25
12,GTAK,≤ 0.25
13,NRND,≤ 0.25
14,ANLI,23.1
15,AHMF,≤ 0.25
16,SQIA,1.28
17,MYID,≤ 0.25
18,MIPC,≤ 0.25
19,NNYI,≤ 0.25
20,PCNG,≤ 0.25
21,SVIN,≤ 0.25
22,APQK,≤ 0.25
23,VSDY,≤ 0.25
24,PLAT,≤ 0.25

row,Variant,enrichment ratio
1,PIQP,≤ 0.25
2,ESQV,≤ 0.25
3,KISD,≤ 0.25
4,RIYV,≤ 0.25
5,WDEP,≤ 0.25
6,DVGL,≤ 0.25
7,INSN,≤ 0.25
8,NRAF,≤ 0.25
9,EMIL,≤ 0.25
10,TSNP,≤ 0.25
11,SMDR,≤ 0.25
12,RSPM,≤ 0.25
13,LYKV,≤ 0.25
14,HYGM,≤ 0.25
15,AINW,≤ 0.25
16,RQVP,≤ 0.25
17,TEVP,≤ 0.25
18,PNGI,≤ 0.25
19,RIMG,≤ 0.25
20,TKRD,≤ 0.25
21,SGYQ,≤ 0.25
22,GMFK,≤ 0.25
23,VFVF,≤ 0.25
24,EPKF,≤ 0.25

row,Variant,enrichment ratio
1,WMSP,≤ 0.25
2,MILN,17.5
3,ESHW,≤ 0.25
4,VAES,≤ 0.25
5,IFFN,≤ 0.25
6,KIQP,≤ 0.25
7,ANQK,≤ 0.25
8,SIFG,≤ 0.25
9,KRFS,≤ 0.25
10,SHKQ,≤ 0.25
11,RPSY,≤ 0.25
12,HLVA,≤ 0.25
13,LLFQ,≤ 0.25
14,ENAG,≤ 0.25
15,RLTD,≤ 0.25
16,TNDY,≤ 0.25
17,FTTG,≤ 0.25
18,LDWP,≤ 0.25
